# Source: PubChem BioAssay AID686979 (National Center for Advancing Translational Sciences (NCATS), 2013)
# Several values for one entry are separate records, joined by “and”; a condition that tells them apart may be missing. Equal entries are not always repeated. Out of some 420,000 compounds screened, about 50,000 (12%) were called active. This list was built around the results that the source calls inconclusive (neither active nor inactive); the mix of calls is not that of the screen. Calls follow the shape of the dose curve; as a rule, active = well fitted inhibition curve with a large enough effect; inconclusive = small, poorly fitted or top-dose-only effect; inactive = flat fitted curve, though single readings scatter. A potency beside an inconclusive call is a rough fit, not a confirmed value.
# Assay: qHTS for Inhibitors of human tyrosyl-DNA phosphodiesterase 1 (TDP1): qHTS in cells in presence of CPT; also: nearly all actives have a fitted effect of over 55% in size
# Settings: chicken DT40 Tdp1-/-;hTDP1 cells + 20 nM CPT, ATP luminescence, 48 h; activity change, negative = growth inhibition: at 46.2 µM (top of the series) unless noted
# Summary of the method: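 Chicken DT40 Tdp1-/- cells complemented with human TDP1, 400 cells/well, exposed to compounds plus 20 nM camptothecin for at least 48 h at 37 C; viability read as ATP content by CellTiter-Glo luminescence.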
# % is scaled to controls: 0 for no effect and ±100 for the full control effect; potency is read from the fitted curve at half-maximal effect; tags tell the direction and shape of the fitted curve.
SMILES,Potency,"activity change, negative = growth inhibition"
CCCCC1Cc2[nH]c(=S)[nH]c(=O)c2C(c2ccc(Cl)cc2)O1 (centres undefined),"inconclusive: 25.9 µM [inhibitor, single point]",–
Cc1onc(-c2ccccc2)c1C(=O)OCC(=O)N(CC(C)C)c1c(N)n(Cc2ccccc2)c(=O)[nH]c1=O,inactive,–
COc1ccccc1N1CCN(C(=O)CCCCn2c(=O)[nH]c3ccsc3c2=O)CC1,"inconclusive: 29.1 µM [inhibitor, single point]",–
CCN(CC)CCOC(=O)c1ccc(NC(=O)c2cc3cccc(OC)c3oc2=O)cc1,active: 20.6 µM,–
CN1CCN(c2ccc(-c3ccc4ccccc4n3)cc2)CC1,"inconclusive: 25.9 µM [inhibitor, single point]",–
Cc1onc(-c2ccccc2)c1C(=O)N(C)CC(=O)Nc1ccc(F)c(F)c1F,"inconclusive: 10.3 µM [inhibitor, partial curve, poor fit]",–
COc1ccc(Cl)cc1NC(=O)Cn1nnc(C(=O)NCc2ccc3c(c2)OCO3)c1N,"inactive and inconclusive: 29.1 µM [inhibitor, single point]",–
O=C(Nc1ccncc1)C1CCN(S(=O)(=O)c2cccc(C(F)(F)F)c2)CC1,"inconclusive: 20.6 µM [inhibitor, single point]",–
CC(C)(C)c1ccc(OCC(=O)N(Cc2cccs2)C2CCS(=O)(=O)C2)cc1 (centres undefined),active: 16.4 µM,–
Cn1c(=O)c2c(n3c4ccccc4nc13)NC(=O)CC2c1cccc(Cl)c1 (centres undefined),inactive,–
CCCc1c(C(=O)N/N=C/C(C)=C/c2ccco2)nnn1-c1nonc1N,"inconclusive: 18.4 µM [inhibitor, single point]",–
CC1CCN(c2c(NCc3ccc(C(=O)NCCc4ccc(Cl)cc4)cc3)c(=O)c2=O)CC1,"inconclusive: 29.1 µM [inhibitor, single point]",–
COc1ccc(C=O)c(-c2c(CCO)sc3ccccc23)c1,"inconclusive: 29.1 µM [inhibitor, single point]",–
COc1ccc(NS(=O)(=O)c2ccc(C)c(C(=O)NNC(=O)c3ccccc3O)c2)cc1,"inconclusive: 29.1 µM [inhibitor, single point]",–
CCOC(=O)c1c(NC(=O)CSc2cn(CCNC(=O)c3c(F)cccc3F)c3ccccc23)sc2c1CCCC2,"inconclusive: 23.1 µM [inhibitor, single point]",–
COc1ccc(C2=Cc3ccccc3C(CC(=O)C3CC3)N2c2ccc(C#CCCO)cc2)cc1 (centres undefined),"inconclusive: 29.1 µM [inhibitor, single point]",–
C/C(=C\CNc1ncnc2nc[nH]c12)CO,inactive,–
CCc1noc(C)c1C(=O)Nc1ccccc1C(C)(C)C,inactive,–
CCOCCc1nn2c(=O)cc(COC(=O)c3cccc(C)c3)nc2s1,"inconclusive: 29.1 µM [inhibitor, single point]",–
CN1CCN(c2ncnc3sc(-c4ccccc4)cc23)CC1,"inconclusive: 16.4 µM [inhibitor, single point]",–
O=C(NCC(c1ccco1)N1CCCCC1)c1ccc([N+](=O)[O-])s1 (centres undefined),active: 18.4 µM,–
Cc1ccc(Cn2c(CN3CCC(C(=O)NCC(C)c4ccccc4)CC3)cc3ccccc32)cc1 (centres undefined),"inconclusive: 29.1 µM [inhibitor, single point]",–
COc1ccc(C(=O)NC2CCSc3ccccc32)cc1S(=O)(=O)N1CCOCC1 (centres undefined),"inconclusive: 25.9 µM [inhibitor, single point]",–

SMILES,Potency,"activity change, negative = growth inhibition"
CC(C)Cc1ccc(C2=CSC3=NCCN23)cc1,"inconclusive: 18.4 µM [inhibitor, single point]",–
O=C(NC1CC2CCCC(C1)N2CC(=O)N1CCCc2ccccc21)C1CCCCC1 (centres undefined),inactive,–
N#Cc1ccc(-c2ccccc2)nc1SCC(=O)c1cc2ccccc2oc1=O,active: 23.1 µM,–
CC(=O)c1ccc(NC(=O)c2cc(C3CC3)nc3c2c(C)nn3-c2ccc(C)cc2)cc1,inactive,–
O=C(Cc1ccc(Cl)cc1)Nc1ccc2oc(=O)ccc2c1,inactive,–
COc1ccccc1C(=O)N1CCN(Cc2c[nH]c3ccccc23)CC1,active: 14.6 µM,–
Cc1ccc(Cl)cc1N1CCN(S(=O)(=O)c2ccc(-c3cnc(C4CC4)o3)cc2)CC1,"inconclusive: 20.6 µM [inhibitor, single point]",–
COc1ccc(S(=O)(=O)N2CCN(C(=O)c3ccccc3Cc3ccccc3)CC2)cc1OC,"inconclusive: 23.1 µM [inhibitor, single point]",–
Cc1ccc(Cc2c(-c3ccc(Cl)cc3)nc3c4ccccc4ccn23)cc1,"inconclusive: 33.2 µM [inhibitor, single point]",–
Cc1sc2nc(CSc3nnnn3-c3ccc(Cl)cc3)[nH]c(=O)c2c1C,"inconclusive: 25.9 µM [inhibitor, single point]",–
Clc1ccc(OCc2cn3ccccc3n2)c2ncccc12,active: 14.6 µM,–
COc1ccc(NC2=CC(=O)CC(c3ccc(C)cc3)C2)c(OC)c1 (centres undefined),"inconclusive: 18.4 µM [inhibitor, single point]",–
O=[N+]([O-])c1ccc(C=NNC(=S)Nc2ccc(F)cc2)cc1,active: 1.46 µM,–
CC(C)n1nnnc1C1c2ccccc2C(=O)N1CCc1c[nH]c2ccccc12 (centres undefined),"inconclusive: 25.9 µM [inhibitor, single point]",–
CS(=O)(=O)N1CCC(Oc2cccc(C(=O)NCCCOc3cccnc3)c2)CC1,"inconclusive: 23.1 µM [inhibitor, single point]",–
C1=Nc2c(Nc3ccccc3)ncnc2Oc2ccccc21,active: 9.2 µM,–
CCOc1ccc2nc(NC(=O)c3ccoc3C)sc2c1,active: 9.2 µM,–
O=C(CN1CCN(Cc2ccccc2F)CC1)Nc1ccccc1Cl,inactive,–
COc1ccc(C(C(=O)NC2CCCC2)N(C(=O)c2ccoc2C)c2ccc(C)c(C)c2)cc1 (centres undefined),"inconclusive: 23.1 µM [inhibitor, single point]",–
CC(=O)c1c(N2CCN(c3ccc(F)cc3)CC2)nc(=S)n(-c2ccccc2)c1C,"inconclusive: 29.1 µM [inhibitor, single point]",–
c1ccc(CNc2ncnc3ccc(-c4cccnc4)cc23)cc1,active: 14.6 µM,–
O=C(CSc1nc(-c2ccccc2)c(-c2ccccc2)[nH]1)Nc1nccs1,"inconclusive: 25.9 µM [inhibitor, single point]",–
CCn1c(O)c(N=NC(=O)c2ccc(CSc3nncn3C)cc2)c2ccccc21,"inconclusive: 23.1 µM [inhibitor, single point]",–

SMILES,Potency,"activity change, negative = growth inhibition"
O=C(NCCc1cn2ccccc2n1)C1CCCCC1,inactive,–
CC(C)(C)NS(=O)(=O)c1ccc2nc(NC(=O)Cc3cccs3)sc2c1,"inconclusive: 29.1 µM [inhibitor, single point]",–
Cc1c(C(=O)NCc2ccc([N+](=O)[O-])cc2)sc(=O)n1Cc1ccc2c(c1)OCO2,"inconclusive: 29.1 µM [inhibitor, single point]",–
CCCCNC(=O)c1onc(CSc2cc(C)cc(C)c2)c1C(=O)NCCCC,"inconclusive: 16.4 µM [inhibitor, single point]",–
Cc1cc(Br)ccc1SCC(=O)OCC(=O)Nc1ncc(C(F)(F)F)cc1Cl,inactive,–
CCC(C(=O)N1CCc2ccccc2C1)n1nc(C)n2c(cc3occc32)c1=O (centres undefined),–,inconclusive: -33% [inhibitor]
CCN1CCN(C(=S)NC(=O)c2cccc(Br)c2)CC1,"inconclusive: 29.1 µM [inhibitor, single point]",–
CCOC(=O)c1ccc(NC(=S)NCCCN2CCOCC2)cc1,inactive,–
O=C(Nc1ccccc1F)C(Cc1ccccc1)N1Cc2ccccc2C1=O (centres undefined),inactive,–
COc1ccc(S(=O)(=O)NCCc2sc(-c3cccc(F)c3)nc2C)cc1,active: 16.4 µM,–
CN1CCc2c(sc(NC(=O)c3ccco3)c2C(N)=O)C1,inactive,–
COc1cc2c(C(=O)N3CCN(c4cc(Cl)ccc4C)CC3)cn(CC(C)C)c(=O)c2cc1OC,"inconclusive: 4.11 µM [inhibitor, partial curve]",–
O=C(Cn1cc(S(=O)(=O)N2CCN(c3ccccc3F)CC2)c2ccccc2c1=O)Nc1ccc(F)cc1Cl,inactive,–
c1nc(NC2CC2)c2cc(-c3ccoc3)ccc2n1,"inconclusive: 14.6 µM [inhibitor, partial curve, poor fit]",–
CC(C)(C)OC(=O)C[C@H]1C/C=C\C[C@H](CC(=O)N(CCO)Cc2ccccc2)C(=O)N[C@@H](c2ccccc2)COC1=O,"inconclusive: 25.9 µM [inhibitor, single point]",–
OCCN(CCO)CC(O)COc1ccc(C23CC4CC(CC(C4)C2)C3)cc1 (centres undefined),active: 7.31 µM,–
CCOC(=O)[C@H]1[C@H]2COc3ccc(Br)cc3[C@@H]2N2C(=O)CN(Cc3ccccc3)C(=O)[C@@]12C,"inconclusive: 29.1 µM [inhibitor, single point]",–
Cc1ccccc1OCCC(=O)OCC(=O)NCCc1ccc(S(N)(=O)=O)cc1,inactive,–
CC(C)c1ccc(NC(=O)CN2C(=O)CCc3cc(S(=O)(=O)N4CCOCC4)ccc32)cc1,"inconclusive: 7.31 µM [inhibitor, partial curve]",–
CNC(=S)Nc1ccc2nc(C)oc2c1,inactive,–
COC(=O)c1c(-c2ccsc2)sc2ccc(-c3cc(OC)c(OC)c(OC)c3)cc12,"inconclusive: 25.9 µM [inhibitor, single point]",–
COc1cc(OC)cc(C(=O)OCC(=O)Nc2nnc(-c3ccccc3)o2)c1,"inconclusive: 20.6 µM [inhibitor, single point]",–
COCCNc1nc2cc(-c3ccsc3)sc2c(=O)n1C,"inconclusive: 20.6 µM [inhibitor, single point]",–
